Inconclusive means that the source gave no clear call. Such entries were picked first, then a sample of the others. For some assays here: Potencies of inconclusive entries are left out as doubtful fits. Active and inactive are the calls of the source. Unless noted, calls follow the shape of the dose curve; as a rule, active = well fitted curve in the direction sought with a large enough effect; inconclusive = small, poorly fitted or top-dose-only effect, or another doubt; inactive = no such curve, though single readings can be large; an effect the other way counts as inactive or inconclusive.
Assays:
[1] = qHTS Assay for Identification of Small Molecule Antagonists for NFkB Signaling Pathway (AID 895; active = well fitted inhibition curve with a large enough effect in the signal ratio, with a control signal flat, not every such curve was filed as active; inconclusive = small, poorly fitted or top-dose-only effect, or effect the other way, or a change in a side signal; the % refers to the signal ratio; also: % is scaled to controls: 0 for no effect and ±100 for the full control effect); conditions: NFkB beta-lactamase reporter cells, FRET ratio 460/530, stimulated with 10 pM TNF alpha; activity change, negative = inhibition: at 38.3 µM (top of the series)
Method in brief: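 NFkB-bla ME-180 cervical carcinoma cells with beta-lactamase reporter under NFkB response element; compounds added, then TNF alpha at 10 pM final (EC50), 5 h at 37 C. LiveBLAzer substrate 2 h, room temperature; emission 460/530 nm at 405 nm excitation.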

[2] = target: Cytochrome P450 2C19 (Homo sapiens) (UniProt P33261); assay: qHTS Assay for Inhibitors and Substrates of Cytochrome P450 2C19 (AID 899); conditions: recombinant CYP2C19, luciferin-H EGE luminescence; activity, negative = inhibition: at 57.1 µM (top of the series); also: top concentration of the series differs between compounds; % is scaled to controls: 0 for no effect and ±100 for the full control effect; nearly all actives have a fitted effect of over 60% in size
Method in brief: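 Human CYP2C19 (5nM) with Luciferin-H EGE at 10uM (its KM) in 50mM KPO4 was preincubated with compound for 10 min at 37C. NADPH regeneration started a 60 min 37C reaction. Luciferin was read by luminescence, normalized to 57uM ketoconazole.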

[3] = target: Muscarinic acetylcholine receptor M1 (Rattus norvegicus) (UniProt P08482); assay: qHTS Assay for Antagonists of Acetylcholine Muscarinic M1 Receptor: Kinetic Measurement of Intracellular Calcium Response (AID 943); also: potency is read from the fitted curve at half-maximal effect; nearly all actives have a fitted effect of over 75% in size
Method in brief: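 Rat M1-CHO cells, 2000/well, overnight → Fluo-4 no-wash dye with probenecid, 1 h 37C → compound 10 min, room temp → basal read 6 s → carbachol EC80 (100 nM) → 4 min kinetic read; peak/basal.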

[4] = target: Muscarinic acetylcholine receptor M1 (Rattus norvegicus) (UniProt P08482); assay: qHTS Assay for Antagonists of Acetylcholine Muscarinic M1 Receptor: Measurement of IP-One Response (AID 944); also: potency is read from the fitted curve at half-maximal effect; nearly all actives have a fitted effect of over 75% in size
[5] = target: Pyruvate kinase PKM (Homo sapiens) (UniProt P14618); assay: qHTS Assay for Inhibitors of Human Muscle Pyruvate Kinase (AID 958); conditions: purified human PKM enzyme activity
Method in brief: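 Luminescence from a luciferase ATP-detection/stop reagent reported PKM2 activity. Reactions contained 0.1 nM purified human enzyme, 0.5 mM PEP, 0.1 mM ADP and 7 mM MgCl2 at pH 7.2, run 1 h at RT.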

[6] = qHTS for differential inhibitors of proliferation of Plasmodium falciparum line GB4 (AID 1816); conditions: Potency: Plasmodium falciparum GB4 proliferation inhibition;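 also: potency is read from the fitted curve at half-maximal effect; parasite growth measured after 72 h incubation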
[7] = target: RecQ-like DNA helicase BLM (Homo sapiens) (UniProt P54132); assay: qHTS Validation Assay for Inhibitors of Bloom's syndrome helicase (BLM) (AID 2364);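 also: plate controls were DMSO vehicle for no effect and enzyme-free control for full effect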
Method in brief: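 BLM 50 nM in 25 mM Tris-HCl pH 8.0, 5 mM NaCl, 2 mM MgCl2, 1 mM DTT, 0.01% Tween-20, 2.5 ug/ml poly(dI-dC); 15 min cpd preinc, RT. Start: 200 nM forked DNA + 2 mM ATP (final). TAMRA read, 2 reads 2 h apart.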

[8] = Quantitative high throughput screen for delayed death inhibitors of the malarial parasite plastid, 96 hour incubation (AID 488745);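 also: luciferase-expressing P. falciparum in erythrocytes at 2% hematocrit and 0.1% parasitemia; % is scaled to controls: 0 for no effect and ±100 for the full control effect; nearly all actives have a fitted effect of over 70% in size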
Method in brief: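 Infected erythrocytes were added to compound in Albumax-supplemented RPMI 1640 at 0.1% parasitemia and 2% hematocrit (final), incubated 96 h at 37 C under 5% CO2, then luciferase reagent was added and luminescence measured.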

[9] = test system: Zika virus NS2B-NS3 protease (unlinked); assay: Optimization of GU AMC qHTS for Zika virus inhibitors: Unlinked NS2B-NS3 protease assay (AID 1347151); also: potency is read from the fitted curve at half-maximal effect; nearly all actives have a fitted effect of over 80% in size
Method in brief: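 Noncovalent NS2B hydrophilic domain–NS3 protease complex (25 nM final) in 10 mM Tris-HCl pH 8.0, 0.01% Tween 20; AMC substrate, room temperature 15 min (~20% conversion); fluorescence change normalized, 4-parameter Hill fit.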

[10] = target: Lysine-specific demethylase 5B (Homo sapiens) (UniProt Q9UGL1); assay: Optimization screen for KDM5B Histone Demethylases FDH coupled qHTS against the LOPAC library (AID 1347166); also: potency is read from the fitted curve at half-maximal effect
Method in brief: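 KDM5BDeltaAP (200nM final) preincubated 10 min with compound, then 12.5uM H3K4Me3, 25uM a-ketoglutarate, ascorbate, Fe(II), NAD+ and FDH added; 50mM HEPES pH 7.5, 0.01% Tween-20. NADH fluorescence (340/450 nm) change over 30 min, room temperature.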

[11] = target: Papain (Carica papaya) (UniProt P00784); assay: Primary qHTS assay for inhibitors of the protease papain (AID 1645873);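 also: papain turnover of Z-FR-AMC read as the AMC fluorescence gain over 10 min; potency is read from the fitted curve at half-maximal effect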
[12] = target: ATP-dependent 6-phosphofructokinase (Trypanosoma brucei brucei) (UniProt O15648); assay: qHTS Assay to Find Inhibitors of T. brucei phosphofructokinase: hit validation (AID 492961); also: potency is read from the fitted curve at half-maximal effect
Method in brief: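 PFK 1.25 nM, F6P 0.5 mM, ATP 0.1 mM, MgCl2 5 mM, 0.1 M TEA pH 8.0, Tween20 0.01%, BSA 0.1%; 45 min RT. ADP-Glo two-step detection, luminescence. qHTS titration; curve fitting with curve-class categorization.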

[13] = qHTS of pediatric cancer cell lines to identify multiple opportunities for drug repurposing: Confirmatory screen for A673 cells (AID 1347110);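 also: potency is read from the fitted curve at half-maximal effect; cells exposed to compound for 48 h before the viability read; nearly all actives have a fitted effect of over 65% in size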
Method in brief: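 A673 cells at 500-1,000 cells/well were dosed 5 h after plating, in dilution series up to 46 uM final; primary runs used 8 or 11 points and confirmatory runs used 11 points. Viability was read by CellTiter-Glo luminescence after 48 h, against DMSO and 2.3 uM bortezomib controls.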

[14] = qHTS of pediatric cancer cell lines to identify multiple opportunities for drug repurposing: Confirmatory screen for BT-37 cells (AID 1347117);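 also: potency is read from the fitted curve at half-maximal effect; viability measured after 48 h of compound exposure; nearly all actives have a fitted effect of over 55% in size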
Method in brief: (§1)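 Cells (500-1,000/well) in growth media were settled 5 h at 37 degrees C, then given compounds for 48 h. Viability was read as CellTiter-Glo luminescence. Primary runs used MIPE at 11 points (0.78 nM-46 µM) and NPC at 8 points (0.59 nM-46 µM); follow-ups used 11 points.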

[15] = qHTS of pediatric cancer cell lines to identify multiple opportunities for drug repurposing: Confirmatory screen for OHS-50 cells (AID 1347128);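 also: potency is read from the fitted curve at half-maximal effect; compound exposure lasted 48 h at 37 degrees C; nearly all actives have a fitted effect of over 55% in size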
Method in brief: as §1

[16] = target: Rap guanine nucleotide exchange factor 3 (Homo sapiens) (UniProt O95398); assay: Confirmatory qHTS for agonist of cAMP-regulated guanine nucleotide exchange factor 3 (EPAC1) (AID 1645881); also: potency is read from the fitted curve at half-maximal effect; nearly all actives have a fitted effect of over 75% in size
[17] = target: Rap guanine nucleotide exchange factor 4 (Homo sapiens) (UniProt Q8WZA2); assay: Confirmatory qHTS for agonist of cAMP-regulated guanine nucleotide exchange factor 4 (EPAC2) (AID 1645884); conditions: EPAC2 GEF activity, Rap1B-BODIPY-GDP fluorescence;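 also: nucleotide exchange releases bodipy-GDP from Rap1 and this lowers its fluorescence; potency is read from the fitted curve at half-maximal effect; nearly all actives have a fitted effect of over 65% in size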
[18] = target: Rap guanine nucleotide exchange factor 3 (Homo sapiens) (UniProt O95398); assay: Counterscreen qHTS for agonist of cAMP-regulated guanine nucleotide exchange factor 3 (EPAC1) (AID 1645889); conditions: EPAC1 Rap1B-BODIPY-GDP exchange, fluorescence; activation: at 154 µM (top of the series); also: % of control where 0% means no effect; nearly all actives have a fitted effect of over 40% in size
Method in brief: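 Measured: fluorescence of BODIPY-GDP bound to Rap1B, which falls as exchange proceeds. Conditions include 50 uM competing GDP, 5 and 30 min reads, and a later cAMP challenge for antagonist detection.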

[19] = target: Estrogen receptor (Homo sapiens) (UniProt P03372); assay: qHTS assay for small molecule antagonists of estrogen receptor alpha signaling (AID 588513; active = well fitted curve in the direction sought with a large enough effect in the signal ratio, with a control signal flat, not every such curve was filed as active; inconclusive = small, poorly fitted or top-dose-only effect, or effect the other way, or a change in a side signal; inactive = no such curve, though single readings can be large or run the other way; the % refers to the signal ratio; also: % is scaled to controls: 0 for no effect and ±100 for the full control effect); conditions: ER-alpha-UAS-bla HEK293, beta-lactamase ratio, antagonist mode; activity, negative = inhibition: at 76.9 µM (top of the series)
Method in brief: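 ER-alpha-UAS-bla GripTite HEK 293 cells in 2% charcoal/dextran-treated FBS medium; compounds titrated (1:2, duplicate), then stimulated with 0.5 nM 17-beta-estradiol for 18 h at 37C. CCF4 beta-lactamase fluorescence; Hill-fit IC50 and efficacy.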

[20] = target: Peroxisome proliferator-activated receptor delta (Homo sapiens) (UniProt Q03181); assay: qHTS assay for small molecule agonists of peroxisome proliferator-activated receptor delta signaling (AID 588534; calls by dose curve;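 also: 0% = DMSO basal wells and 100% = positive control agonist at 10 µM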); conditions: HEK293T PPARdelta-UAS-bla, beta-lactamase ratio, 18 h; activation: at 76.7 µM (top of the series)
Method in brief: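 Fluorescence from CCF4 substrate cleavage by beta-lactamase reporter, read 2 hrs at RT, measured agonist activity. Compounds were tested with 18 hrs exposure at 37 C. Concentration-response data fitted to Hill equation.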
Tags tell the direction and shape of the fitted curve.

UniProt P08482, sequence (P08482 whole entry, looked up): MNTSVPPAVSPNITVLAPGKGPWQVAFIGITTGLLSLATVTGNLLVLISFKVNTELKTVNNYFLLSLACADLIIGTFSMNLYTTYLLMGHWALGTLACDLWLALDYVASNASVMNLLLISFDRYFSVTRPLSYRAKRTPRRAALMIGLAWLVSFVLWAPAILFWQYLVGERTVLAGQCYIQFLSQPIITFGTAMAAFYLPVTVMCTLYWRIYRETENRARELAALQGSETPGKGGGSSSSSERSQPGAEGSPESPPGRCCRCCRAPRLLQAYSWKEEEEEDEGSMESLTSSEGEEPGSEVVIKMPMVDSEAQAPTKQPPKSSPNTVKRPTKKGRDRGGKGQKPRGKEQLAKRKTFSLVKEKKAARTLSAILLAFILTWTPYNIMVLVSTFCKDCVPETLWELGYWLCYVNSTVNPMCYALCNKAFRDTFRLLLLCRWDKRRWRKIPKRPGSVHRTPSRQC
UniProt P14618, sequence (P14618 whole entry, looked up): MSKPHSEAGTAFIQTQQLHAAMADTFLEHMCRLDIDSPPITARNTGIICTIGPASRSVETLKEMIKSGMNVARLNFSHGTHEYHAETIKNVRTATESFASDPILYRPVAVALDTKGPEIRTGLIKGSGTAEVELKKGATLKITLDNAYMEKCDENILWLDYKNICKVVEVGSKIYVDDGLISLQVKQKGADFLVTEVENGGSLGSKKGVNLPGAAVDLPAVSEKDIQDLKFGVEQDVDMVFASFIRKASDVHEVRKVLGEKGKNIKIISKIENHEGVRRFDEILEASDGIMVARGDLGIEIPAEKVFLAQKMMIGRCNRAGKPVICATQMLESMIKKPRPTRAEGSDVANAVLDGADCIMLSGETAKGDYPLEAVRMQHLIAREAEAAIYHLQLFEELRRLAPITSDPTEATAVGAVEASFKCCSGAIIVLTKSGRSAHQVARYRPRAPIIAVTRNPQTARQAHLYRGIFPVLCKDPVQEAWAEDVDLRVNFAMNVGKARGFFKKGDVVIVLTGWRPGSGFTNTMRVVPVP
UniProt P54132, sequence (P54132 whole entry, looked up): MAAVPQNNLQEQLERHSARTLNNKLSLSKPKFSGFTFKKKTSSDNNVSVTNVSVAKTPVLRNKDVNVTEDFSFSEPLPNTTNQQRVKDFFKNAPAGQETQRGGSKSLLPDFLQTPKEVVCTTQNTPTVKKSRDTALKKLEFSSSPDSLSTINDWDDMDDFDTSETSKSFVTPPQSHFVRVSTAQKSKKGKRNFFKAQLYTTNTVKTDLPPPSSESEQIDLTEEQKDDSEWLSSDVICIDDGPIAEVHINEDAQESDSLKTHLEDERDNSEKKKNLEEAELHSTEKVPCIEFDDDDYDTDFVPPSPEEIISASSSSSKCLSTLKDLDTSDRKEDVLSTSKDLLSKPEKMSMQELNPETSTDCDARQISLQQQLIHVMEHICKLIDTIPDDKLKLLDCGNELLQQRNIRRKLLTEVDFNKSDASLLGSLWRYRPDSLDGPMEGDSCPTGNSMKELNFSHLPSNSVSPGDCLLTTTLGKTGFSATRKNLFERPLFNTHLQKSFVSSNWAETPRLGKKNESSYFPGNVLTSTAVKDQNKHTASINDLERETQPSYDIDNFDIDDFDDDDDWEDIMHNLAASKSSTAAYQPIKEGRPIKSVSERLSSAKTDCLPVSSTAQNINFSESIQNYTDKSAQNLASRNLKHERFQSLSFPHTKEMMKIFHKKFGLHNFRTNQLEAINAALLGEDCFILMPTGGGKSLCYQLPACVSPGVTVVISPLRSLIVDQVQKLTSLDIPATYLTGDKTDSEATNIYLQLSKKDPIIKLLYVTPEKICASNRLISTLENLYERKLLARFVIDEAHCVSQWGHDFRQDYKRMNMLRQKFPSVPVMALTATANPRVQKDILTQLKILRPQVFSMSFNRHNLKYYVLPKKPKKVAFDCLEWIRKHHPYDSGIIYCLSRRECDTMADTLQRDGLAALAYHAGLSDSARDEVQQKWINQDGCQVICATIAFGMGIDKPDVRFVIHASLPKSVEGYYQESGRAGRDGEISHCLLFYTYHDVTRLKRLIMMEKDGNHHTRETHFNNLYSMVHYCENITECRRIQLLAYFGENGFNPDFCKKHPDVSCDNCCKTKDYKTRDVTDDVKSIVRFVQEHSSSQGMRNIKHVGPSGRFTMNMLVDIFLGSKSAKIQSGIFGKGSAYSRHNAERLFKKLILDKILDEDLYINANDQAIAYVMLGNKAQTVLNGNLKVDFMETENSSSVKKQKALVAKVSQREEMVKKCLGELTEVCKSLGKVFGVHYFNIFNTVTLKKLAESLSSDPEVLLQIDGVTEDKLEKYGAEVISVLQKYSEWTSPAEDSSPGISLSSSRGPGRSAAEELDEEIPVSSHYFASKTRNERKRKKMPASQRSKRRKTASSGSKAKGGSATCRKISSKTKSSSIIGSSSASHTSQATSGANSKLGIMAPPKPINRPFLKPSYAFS
UniProt O95398, sequence (O95398 whole entry, looked up): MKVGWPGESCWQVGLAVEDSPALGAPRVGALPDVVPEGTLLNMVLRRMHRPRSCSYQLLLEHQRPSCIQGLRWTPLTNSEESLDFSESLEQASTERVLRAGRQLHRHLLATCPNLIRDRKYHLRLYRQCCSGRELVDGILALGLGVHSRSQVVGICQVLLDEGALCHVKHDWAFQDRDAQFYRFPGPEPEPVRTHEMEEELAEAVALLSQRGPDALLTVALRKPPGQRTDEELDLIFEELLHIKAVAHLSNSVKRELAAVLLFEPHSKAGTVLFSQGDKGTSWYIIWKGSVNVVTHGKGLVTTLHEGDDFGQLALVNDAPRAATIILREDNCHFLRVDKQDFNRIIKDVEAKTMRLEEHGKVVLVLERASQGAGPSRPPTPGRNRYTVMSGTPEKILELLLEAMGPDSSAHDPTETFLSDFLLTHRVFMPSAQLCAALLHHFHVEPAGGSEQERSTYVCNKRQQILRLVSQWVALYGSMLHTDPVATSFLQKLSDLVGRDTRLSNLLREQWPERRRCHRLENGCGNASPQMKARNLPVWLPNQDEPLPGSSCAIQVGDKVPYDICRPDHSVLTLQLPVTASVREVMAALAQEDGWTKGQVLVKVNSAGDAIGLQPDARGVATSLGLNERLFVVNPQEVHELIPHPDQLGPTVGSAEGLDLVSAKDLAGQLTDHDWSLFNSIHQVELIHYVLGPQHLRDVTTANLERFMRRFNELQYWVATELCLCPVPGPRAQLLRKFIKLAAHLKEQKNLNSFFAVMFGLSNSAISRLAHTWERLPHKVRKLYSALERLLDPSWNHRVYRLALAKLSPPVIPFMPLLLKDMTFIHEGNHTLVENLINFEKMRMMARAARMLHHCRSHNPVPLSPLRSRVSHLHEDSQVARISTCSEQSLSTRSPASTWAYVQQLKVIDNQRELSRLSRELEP
UniProt P03372, sequence (P03372 whole entry, looked up): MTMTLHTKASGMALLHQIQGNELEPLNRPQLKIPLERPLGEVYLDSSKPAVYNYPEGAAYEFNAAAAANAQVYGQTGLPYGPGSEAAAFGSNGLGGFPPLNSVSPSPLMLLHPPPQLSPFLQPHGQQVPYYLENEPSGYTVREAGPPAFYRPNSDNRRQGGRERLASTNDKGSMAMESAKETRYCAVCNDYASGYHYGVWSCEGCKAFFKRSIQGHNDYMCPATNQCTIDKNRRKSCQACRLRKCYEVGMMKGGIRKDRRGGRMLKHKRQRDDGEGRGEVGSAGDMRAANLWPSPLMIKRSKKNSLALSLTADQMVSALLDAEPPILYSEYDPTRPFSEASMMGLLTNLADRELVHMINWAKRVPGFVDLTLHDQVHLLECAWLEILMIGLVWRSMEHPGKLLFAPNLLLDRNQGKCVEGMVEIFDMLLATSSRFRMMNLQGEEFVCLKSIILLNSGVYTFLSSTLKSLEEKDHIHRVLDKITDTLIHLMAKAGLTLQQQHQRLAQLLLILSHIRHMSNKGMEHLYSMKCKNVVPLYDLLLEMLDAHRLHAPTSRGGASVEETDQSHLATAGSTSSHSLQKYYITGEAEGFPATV
UniProt O15648, sequence (O15648 whole entry, looked up): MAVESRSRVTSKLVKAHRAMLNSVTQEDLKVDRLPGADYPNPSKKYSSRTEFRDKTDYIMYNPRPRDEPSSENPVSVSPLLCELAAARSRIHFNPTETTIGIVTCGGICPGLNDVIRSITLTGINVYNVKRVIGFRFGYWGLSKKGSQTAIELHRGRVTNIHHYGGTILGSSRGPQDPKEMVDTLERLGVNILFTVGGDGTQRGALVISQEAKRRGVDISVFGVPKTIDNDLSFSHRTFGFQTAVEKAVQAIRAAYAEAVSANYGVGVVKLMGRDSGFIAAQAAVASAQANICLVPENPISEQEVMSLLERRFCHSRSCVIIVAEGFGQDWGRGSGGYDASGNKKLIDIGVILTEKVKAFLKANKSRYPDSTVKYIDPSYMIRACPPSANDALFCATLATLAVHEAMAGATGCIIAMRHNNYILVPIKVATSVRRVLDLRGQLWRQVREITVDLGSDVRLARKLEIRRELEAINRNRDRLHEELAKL
UniProt P33261, sequence (P33261 whole entry, looked up): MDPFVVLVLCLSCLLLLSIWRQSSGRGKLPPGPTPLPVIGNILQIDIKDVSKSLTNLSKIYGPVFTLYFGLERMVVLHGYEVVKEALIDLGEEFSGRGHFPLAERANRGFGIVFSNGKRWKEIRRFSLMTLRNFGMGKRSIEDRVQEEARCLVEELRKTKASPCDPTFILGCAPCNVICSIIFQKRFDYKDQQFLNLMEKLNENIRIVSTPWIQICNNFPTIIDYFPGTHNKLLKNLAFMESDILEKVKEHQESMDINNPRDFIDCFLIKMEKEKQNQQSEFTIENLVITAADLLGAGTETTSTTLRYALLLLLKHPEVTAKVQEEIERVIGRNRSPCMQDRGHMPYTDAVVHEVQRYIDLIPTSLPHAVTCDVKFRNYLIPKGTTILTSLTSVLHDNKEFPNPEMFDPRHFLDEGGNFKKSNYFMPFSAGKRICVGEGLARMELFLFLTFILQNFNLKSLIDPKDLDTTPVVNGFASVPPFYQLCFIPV

For `Cc1nc2ccccn2c(=O)c1CCN1CCC(C(=O)c2ccc(F)cc2)CC1`, which Potency [1] is on record?
Its Potency is “inactive”.

And the Potency [2]?
The Potency was “inactive”.

What about the Potency [3] of the same molecule?
Its Potency is inconclusive [inhibitor, partial curve, poor fit].

What about the Potency [4] of the same molecule?
Its Potency is active: 8.91 µM.

And the Potency [5]?
The Potency was inconclusive [inhibitor, full curve, poor fit].

And the Potency [6]?
Its Potency is active: 11.2 µM.

What about the Potency [7] of the same molecule?
Its Potency is “inactive”.

And the Potency [8]?
The Potency was “inactive”.

And the Potency [9]?
Its Potency is inconclusive [inhibitor, single point].

And the Potency [10]?
The Potency was inconclusive [inhibitor, partial curve, poor fit].

And the Potency [11]?
The Potency was inconclusive [inhibitor, single point].

With `O=C(Nc1ccc(Cl)c(Cl)c1)C1CC1` as the molecule, how does the Potency [12] read?
The Potency was inconclusive [falling, partial curve].

Which Potency [13] does the source give for `CCOC(=O)[C@@H](N)Cc1ccc(-c2cc(O[C@H](c3ccc(Cl)cc3-n3ccc(C)n3)C(F)(F)F)nc(N)n2)cc1` here?
Its Potency is inconclusive [cytotoxic, single point].

What about the Potency [14] of the same molecule?
The Potency was inconclusive [cytotoxic, single point].

What about the Potency [15] of the same molecule?
Its Potency is inconclusive [cytotoxic, partial curve].

With `COc1ccc(/C=C/C(=O)c2ccc(OC)cc2OC)cc1` as the molecule, how does the Potency [16] read?
The Potency was inconclusive [activator, partial curve].

What about the Potency [17] of the same molecule?
The Potency was inconclusive [activator, partial curve].

What about the Potency [18] of the same molecule?
Its Potency is “inactive”.

For `C#C[C@]1(O)CC[C@H]2[C@@H]3CCC4=Cc5oncc5C[C@]4(C)[C@H]3CC[C@@]21C`, which activity, negative = inhibition [19] is on record?
The activity, negative = inhibition was inconclusive: 12.4%.

What about the Potency [20] of the same molecule?
The Potency was “inactive”.

— PubChem BioAssay (NCATS)
